Assay results from EPA's CvTdb concentration-time database.
The source gives many values for each of these; only a part stands here.

Columns and labels:
Assay in all cases: concentration in plasma after dosing
[1] = test system: Rat; conditions: dosed: Isoeugenol, 17 mg/kg, iv, Female, F344/N
[2] = test system: Rat; conditions: dosed: Isoeugenol, 70 mg/kg, oral, Female, F344/N
[3] = test system: Rat; conditions: dosed: Isoeugenol, 70 mg/kg, oral, Female, F344/N; remark: listed apart in the source
[4] = test system: Rat; conditions: dosed: Isoeugenol, 17 mg/kg, iv, Male, F344/N
[5] = test system: Rat; conditions: 0.5 h; dosed: Isoeugenol; 17 mg/kg; iv; Male; F344/N
[6] = test system: Rat; conditions: dosed: Isoeugenol, 17 mg/kg, iv, Female, F344/N; remark: listed apart in the source
[7] = test system: Rat; conditions: dosed: Isoeugenol, 140 mg/kg, oral, Male, F344/N
[8] = test system: Rat; conditions: dosed: Isoeugenol, 140 mg/kg, oral, Female, F344/N
[9] = test system: Rat; conditions: dosed: Isoeugenol, 17 mg/kg, iv, Female, F344/N; remark: listed apart in the source
[10] = test system: Rat; conditions: 20 min; dosed: Isoeugenol; 17 mg/kg; iv; Male; F344/N
[11] = test system: Rat; conditions: dosed: Isoeugenol, 17 mg/kg, iv, Male, F344/N; remark: listed apart in the source
[12] = test system: Rat; conditions: dosed: Isoeugenol, 17 mg/kg, iv, Female, F344/N; remark: listed apart in the source
[13] = test system: Rat; conditions: 528 h; dosed: Perfluorohexane-1-sulphonic acid – potassium salt; 16 mg/kg; oral; Female; F344
[14] = test system: Rat; conditions: 12 h; dosed: Perfluorohexane-1-sulphonic acid – potassium salt; 16 mg/kg; oral; Female; Harlan Sprague Dawley
[15] = test system: Rat; conditions: dosed: Perfluorohexane-1-sulphonic acid – potassium salt, 32 mg/kg, oral, Female, Harlan Sprague Dawley
[16] = test system: Rat; conditions: 6 h; dosed: Perfluorohexane-1-sulphonic acid – potassium salt; 16 mg/kg; oral; Female; F344
[17] = test system: Rat; conditions: dosed: Perfluorohexane-1-sulphonic acid – potassium salt, 4 mg/kg, Female, F344
[18] = test system: Rat; conditions: dosed: Perfluorohexane-1-sulphonic acid – potassium salt, 4 mg/kg, Female, F344; remark: listed apart in the source
[19] = test system: Rat; conditions: dosed: Perfluorohexane-1-sulphonic acid – potassium salt, 16 mg/kg, oral, Male, F344
[20] = test system: Rat; conditions: dosed: Perfluorohexane-1-sulphonic acid – potassium salt, 4 mg/kg, Female, F344; remark: listed apart in the source
[21] = test system: Rat; conditions: 3 h; dosed: Perfluorohexane-1-sulphonic acid – potassium salt; 16 mg/kg; oral; Female; F344
[22] = test system: Rat; conditions: 6 h; dosed: Perfluorohexane-1-sulphonic acid – potassium salt; 16 mg/kg; oral; Female; F344; remark: listed apart in the source
[23] = test system: Rat; conditions: 192 h; dosed: Perfluorohexane-1-sulphonic acid – potassium salt; 16 mg/kg; oral; Female; F344
[24] = test system: Rat; conditions: dosed: Perfluorohexane-1-sulphonic acid – potassium salt, 32 mg/kg, oral, Male, Harlan Sprague Dawley
[25] = test system: Rat; conditions: dosed: Perfluorohexane-1-sulphonic acid – potassium salt, 16 mg/kg, oral, Female, Harlan Sprague Dawley
[26] = test system: Rat; conditions: 192 h; dosed: Perfluorohexane-1-sulphonic acid – potassium salt; 16 mg/kg; oral; Female; F344; remark: listed apart in the source
[27] = test system: Rat; conditions: dosed: Fluorotelomer alcohol 8+2, 80 mg/kg, oral, Female, Harlan Sprague Dawley
[28] = test system: Rat; conditions: dosed: Fluorotelomer alcohol 8+2, 40 mg/kg, oral, Female, Harlan Sprague Dawley
[29] = test system: Rat; conditions: 9 h; dosed: Fluorotelomer alcohol 8+2; 24 mg/kg; oral; Male; Harlan Sprague Dawley
[30] = test system: Rat; conditions: 3 h; dosed: Fluorotelomer alcohol 8+2; 24 mg/kg; oral; Male; Harlan Sprague Dawley
[31] = test system: Rat; conditions: dosed: Fluorotelomer alcohol 8+2, 160 mg/kg, oral, Female, Harlan Sprague Dawley
[32] = test system: Rat; conditions: 12 h; dosed: Fluorotelomer alcohol 8+2; 24 mg/kg; oral; Male; Harlan Sprague Dawley
[33] = test system: Rat; conditions: dosed: Fluorotelomer alcohol 8+2, 48 mg/kg, oral, Male, Harlan Sprague Dawley
[34] = test system: Rat; conditions: 3 h; dosed: Fluorotelomer alcohol 8+2; 40 mg/kg; oral; Female; Harlan Sprague Dawley

C/C=C/c1ccc(O)c(OC)c1 [Isoeugenol]
Conditions | concentration in plasma [µg/mL]
[1], 0.75 h | 0.429
[1], 2.5 h | 0.131
[2], 0.75 h | 0.364
[2], 3 h | 0.201
[3], 5 min | 1.21
[3], 6 h | 0.318
[4], 1.5 h | 0.116
[4], 5 min | 7.92
[6], 1 h | 0.245
[6], 2 h | 0.0975
[7], 4 h | 0.618
[7], 5 min | 0.635
[8], 1.5 h | 1.24
[8], 3 h | 1.32
[9], 0.5 h | 0.888
[9], 4 h | 0.0422
[11], 2 h | 0.0587
[11], 20 min | 1.94
[12], 1.5 h | 0.135
[12], 20 min | 1.88

Conditions | concentration in plasma [µg/mL]
[5] | 1.05
[10] | 1.9

O=S(=O)([O-])C(F)(F)C(F)(F)C(F)(F)C(F)(F)C(F)(F)C(F)(F)F.[K+] [Perfluorohexane-1-sulphonic acid – potassium salt]
Conditions | concentration in plasma
[13] | 34900 ng/mL
[14] | 84 µg/mL
[16] | 125 µg/mL
[21] | 117 µg/mL
[22] | 118 µg/mL
[23] | 71 µg/mL
[26] | 67.1 µg/mL

Conditions | concentration in plasma
[15], 1 h | 46600 ng/mL
[15], 24 h | 86300 ng/mL
[15], 288 h | 1980 ng/mL
[17], 0.25 h | 50100 ng/mL
[17], 12 h | 22000 ng/mL
[17], 288 h | 119 ng/mL
[18], 0.25 h | 52900 ng/mL
[18], 12 h | 21700 ng/mL
[18], 288 h | 57.2 ng/mL
[19], 0.25 h | 40900 ng/mL
[19], 864 h | 30500 ng/mL
[20], 3 h | 40700 ng/mL
[20], 5 min | 70200 ng/mL
[20], 528 h | 8630 ng/mL
[24], 3 h | 153 µg/mL
[24], 192 h | 90.6 µg/mL
[24], 1200 h | 10.2 µg/mL
[25], 1 h | 72300 ng/mL
[25], 528 h | 35 ng/mL

O=C(O)CCC(F)(F)C(F)(F)C(F)(F)C(F)(F)C(F)(F)C(F)(F)C(F)(F)F [Fluorotelomer acid 7+3]
Conditions | concentration in plasma [ng/mL]
[27], 0.75 h | 1290
[27], 48 h | 1330
[28], 48 h | 176
[28], 192 h | 56.9
[31], 48 h | 1170
[31], 192 h | 115
[33], 0.5 h | 202
[33], 9 h | 500

Conditions | concentration in plasma [ng/mL]
[29] | 175
[30] | 1620
[32] | 497
[34] | 3430
